The record followed here is patent US20230028110A1 (ADAPTATE BIOTHERAPEUTICS, published 2023).

The target in assay [1] is T1, TIGIT on TIGIT+ NFAT Jurkat cells (human).
T1 sequence (Q495A1 whole entry, looked up): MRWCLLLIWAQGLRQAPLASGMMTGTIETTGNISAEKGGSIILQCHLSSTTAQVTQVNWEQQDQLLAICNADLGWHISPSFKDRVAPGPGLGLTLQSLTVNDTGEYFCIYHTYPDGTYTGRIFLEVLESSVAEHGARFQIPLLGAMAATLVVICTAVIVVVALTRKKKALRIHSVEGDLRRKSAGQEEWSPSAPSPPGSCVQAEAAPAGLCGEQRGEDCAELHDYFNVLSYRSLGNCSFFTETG
In words: cell-based or functional assay.

The target in assay [2] is T2, L1 (DV1-GV4), soluble human Vδ1/Vγ4 γδ TCR heterodimer in leucine zipper format (human).
T2 construct: Biotinylated in the DELFIA ranking; also called Antigen L1 (TRDV1/TRGV4); human DV1-GV4; not shown: gamma chain: Vγ4 (TRGV4) domain on a TCR constant region, leucine zipper, histidine tag
The experiment in a line: SPR (Reichert 4SPR), antibody on Protein A chip, antigen flown over.

A further assay concerns the target T3, Recombinant human TIGIT (human, UniProt Q495A1 22-141).
T3 construct: also called T cell immunoreceptor with Ig and ITIM domains
T3 sequence (looked up): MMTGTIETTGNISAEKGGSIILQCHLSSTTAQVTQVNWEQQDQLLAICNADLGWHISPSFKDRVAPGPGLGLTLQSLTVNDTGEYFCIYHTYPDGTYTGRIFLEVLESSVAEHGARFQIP
The assay is described as above.

B1: Anti-Vδ1xAnti-TIGIT (ADT1-4-2xtiragolumab) bispecific antibody (bispecific antibody, human IgG1, kappa)
light: DIVMTQSPDSLAVSLGERATINCKSSQTVLYSSNNKKYLAWYQQKPGQPPNLLIYWASTRESGVPDRFSGSGSGTDFTLTISSLQAEDVAVYYCQQYYSTPFTFGPGTKVEIKRTVAAPSVFIFPPSDEQLKSGTASVVCLLNNFYPREAKVQWKVDNALQSGNSQESVTEQDSKDSTYSLSSTLTLSKADYEKHKVYACEVTHQGLSSPVTKSFNRGEC
heavy: EVQLQQSGPGLVKPSQTLSLTCAISGDSVSSNSAAWNWIRQSPSRGLEWLGKTYYRFKWYSDYAVSVKGRITINPDTSKNQFSLQLNSVTPEDTAVFYCTRESTTYDLLAGPFDYWGQGTLVTVSSASTKGPSVFPLAPSSKSTSGGTAALGCLVKDYFPEPVTVSWNSGALTSGVHTFPAVLQSSGLYSLSSVVTVPSSSLGTQTYICNVNHKPSNTKVDKKV[letters of human IgG1 Fc with L235A G237A (EU numbers) omitted]GGGGGSGGGGSGGGGSEVQLQQSGPGLVKPSQTLSLTCAISGDSVSSKSAAWNWIRQSPSRGLEWLGRTYYRSKWSTDYAASVKSRITINPDTSKNQLSLQLNSVTPEDTAVYYCARTWVGYVDRWGQGTLVTVSSGGGGSGGGGSGGGGSDIQMTQSPPALSASVGDRVTITCRASQDINDWLAWYQHKPGKAPKLLIYDASSLESGVPLRFSGSGSGTEFTLTISSLQPDDFATYYCQQKYSAPQVTFGQGTRLEIK
notes: also called Vδ1-TIGIT bispecific antibody
As usually defined, the Kd is the concentration at which binding is half-saturated. Turning to B1, in assay [1], the “EC50 (read off the curve): TIGIT/CD155 Blockade Reporter Assay, luminescence RLU” value is about 6 nM. For the same molecule, the Kd in assay [2] worked out at 1.9 nM; in the assay with Recombinant human TIGIT, 0.3 nM.
